The values below come from paper PMC4336329 (PLoS ONE, 2015).

Out of some 310,000 compounds screened, about 2,200 (0.71%) showed an effect of 50% or more. The effect is printed as a negative number. Some of the results follow.

The target of the test is human ether-à-go-go-related gene (hERG) potassium channel (human, UniProt Q12809). Kind of test: primary screen, population patch clamp on CHO cells stably expressing hERG.
Chain of human ether-à-go-go-related gene (hERG) potassium channel (Q12809 whole entry, looked up): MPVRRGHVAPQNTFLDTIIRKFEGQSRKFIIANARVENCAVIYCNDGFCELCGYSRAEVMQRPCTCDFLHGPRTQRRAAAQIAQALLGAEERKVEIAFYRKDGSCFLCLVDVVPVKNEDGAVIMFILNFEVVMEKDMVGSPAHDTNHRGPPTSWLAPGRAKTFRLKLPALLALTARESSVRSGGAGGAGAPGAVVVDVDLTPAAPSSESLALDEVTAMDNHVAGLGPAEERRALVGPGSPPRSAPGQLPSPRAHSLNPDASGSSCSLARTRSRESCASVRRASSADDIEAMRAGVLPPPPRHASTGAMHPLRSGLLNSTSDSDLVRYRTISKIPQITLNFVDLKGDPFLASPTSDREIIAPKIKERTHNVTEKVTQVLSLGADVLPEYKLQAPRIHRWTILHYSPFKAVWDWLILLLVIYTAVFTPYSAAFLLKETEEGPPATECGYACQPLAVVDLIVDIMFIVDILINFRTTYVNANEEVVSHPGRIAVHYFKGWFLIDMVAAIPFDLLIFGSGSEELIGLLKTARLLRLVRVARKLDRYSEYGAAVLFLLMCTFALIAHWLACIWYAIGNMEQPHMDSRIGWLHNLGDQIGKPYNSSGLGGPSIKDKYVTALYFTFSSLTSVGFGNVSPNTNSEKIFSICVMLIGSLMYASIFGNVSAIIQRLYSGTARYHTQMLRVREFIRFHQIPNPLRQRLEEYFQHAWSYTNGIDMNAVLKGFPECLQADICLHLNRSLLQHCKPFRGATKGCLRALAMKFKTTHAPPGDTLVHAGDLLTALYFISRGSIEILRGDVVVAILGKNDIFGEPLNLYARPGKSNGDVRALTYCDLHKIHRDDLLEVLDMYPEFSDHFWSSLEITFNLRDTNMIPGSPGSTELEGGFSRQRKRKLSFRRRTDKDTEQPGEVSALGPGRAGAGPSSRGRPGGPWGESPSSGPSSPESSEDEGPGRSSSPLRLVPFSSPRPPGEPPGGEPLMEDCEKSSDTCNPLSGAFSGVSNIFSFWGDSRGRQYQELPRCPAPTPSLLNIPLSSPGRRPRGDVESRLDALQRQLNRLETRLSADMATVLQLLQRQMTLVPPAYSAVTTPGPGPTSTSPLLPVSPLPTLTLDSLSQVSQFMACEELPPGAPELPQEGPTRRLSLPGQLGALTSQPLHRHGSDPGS
For `Cn1c(=O)c(C(=O)NCc2ccccc2Cl)c(O)c2ccccc21`, the “hERG current change (%, negative = inhibition) at 1uM” value stood at 15.1%.

Turning to `CCOc1ccc(NC(=O)CSc2nc(C)c3c(c2C#N)CCCC3)cc1`, the “hERG current change (%, negative = inhibition) at 1uM” value is on record as -5.6%.

As for `O=C(O)C(Cc1ccccc1)N1C(=O)c2c(Cl)c(Cl)c(Cl)c(Cl)c2C1=O` (centres unmarked), the “hERG current change (%, negative = inhibition) at 1uM” value is recorded as 6.99%.

Consider `Cc1ccccc1C(=O)N1CCN(S(=O)(=O)c2ccccc2)CC1`, for which the “hERG current change (%, negative = inhibition) at 1uM” value was determined as 11.5%.

As for `CCCOc1ccc(CC(=O)NCc2ccco2)cc1OC`, the “hERG current change (%, negative = inhibition) at 1uM” value is listed as 12.1%.

For the compound `COc1ccc2nc(N3CCOCC3)cc(C)c2c1`, the “hERG current change (%, negative = inhibition) at 1uM” value stood at 12.9%.

As for `CC1=C(C(=O)OCC2CCCO2)C(c2ccccc2OC(C)C)C2=C(CC(c3ccco3)CC2=O)N1` (centres unmarked), the “hERG current change (%, negative = inhibition) at 1uM” value is recorded as -5.16%.

Regarding `COc1cc(-n2c(=O)c3ccccc3n(Cc3cccnc3)c2=O)cc(OC)c1OC`, the “hERG current change (%, negative = inhibition) at 1uM” value is listed as 9.62%.

As to `COc1cccc(C(=O)NC2CC3CCCC(C2)N3CC(=O)Nc2ccccc2)c1.Cl` (centres unmarked), the “hERG current change (%, negative = inhibition) at 1uM” value was -9.02%.

Turning to `COc1ccc2[nH]c(=O)c(CN(Cc3cccs3)Cc3nnnn3C(C)(C)C)cc2c1`, the “hERG current change (%, negative = inhibition) at 1uM” value is -6.85%.

`COc1ccc(O)c(/C=N/NC(=O)CSc2nnc(C)n2-c2ccccc2)c1`: the “hERG current change (%, negative = inhibition) at 1uM” value is given as 11.2%.

On to `O=C(COc1ccccc1Cl)NNC(=O)C1CCCO1` (centres unmarked), for which the “hERG current change (%, negative = inhibition) at 1uM” value came to 3.63%.

On to `CC(C)NS(=O)(=O)c1ccc(CCC(=O)N2CCC(C(N)=O)CC2)cc1`, for which the “hERG current change (%, negative = inhibition) at 1uM” value was 10.7%.

For the compound `O=C(NN=C1CCCC1)c1cc(-c2ccccc2)n[nH]1`, the “hERG current change (%, negative = inhibition) at 1uM” value worked out at 7.49%.

Regarding `CCCC(=O)NCCCc1nc2ccccc2[nH]1`, the “hERG current change (%, negative = inhibition) at 1uM” value is reported as 22.9%.

In the case of `CCC(C)NC(=O)Cn1c(=O)n(CCCCCC(=O)Nc2ccccc2)c(=O)c2sccc21` (centres unmarked), the “hERG current change (%, negative = inhibition) at 1uM” value was 7.46%.

As for `CCc1ccc(-c2nc3ccc(Br)cc3c(C(=O)O)c2C)s1`, the “hERG current change (%, negative = inhibition) at 1uM” value was determined as 18.3%.

`CC(C)CCNC(=S)Nc1ccccc1F`: the “hERG current change (%, negative = inhibition) at 1uM” value is on record as -5.96%.

As for `O=C(CCN1C(=O)c2cccc3cccc(c23)C1=O)N1CCN(Cc2ccc3c(c2)OCO3)CC1`, the “hERG current change (%, negative = inhibition) at 1uM” value is -7.05%.

Take `CCN(c1ccc(OC)cc1)S(=O)(=O)c1ccc(-c2ccc(=O)[nH]n2)o1`: the “hERG current change (%, negative = inhibition) at 1uM” value worked out at 19.1%.

As for `CC12CCC(=O)N1C(C(=O)Nc1cc(C(F)(F)F)ccc1N1CCCCC1)CS2` (centres unmarked), the “hERG current change (%, negative = inhibition) at 1uM” value was 17.2%.

For `Cc1ccc(NC(=S)Nc2ccc3cn[nH]c3c2)cc1`, the “hERG current change (%, negative = inhibition) at 1uM” value amounted to 9.91%.

`COc1ccc(C(=O)C2CN(c3ccccc3)CC2c2ccc(Cl)cc2)cc1` (centres unmarked): the “hERG current change (%, negative = inhibition) at 1uM” value came to 0.206%.

In the case of `CCn1cc(C(=O)NCCCOC)c2cc(OC)c(OC)cc2c1=O`, the “hERG current change (%, negative = inhibition) at 1uM” value is on record as 2.85%.

For the compound `Cc1c(NS(=O)(=O)c2ccc(Cl)c(C(=O)OC(C)C(=O)N3CCOCC3)c2)c(=O)n(-c2ccccc2)n1C` (centres unmarked), the “hERG current change (%, negative = inhibition) at 1uM” value turned out to be 5.13%.

For the compound `O=C(NC(=S)NCc1cccnc1)c1ccc([N+](=O)[O-])cc1`, the “hERG current change (%, negative = inhibition) at 1uM” value is given as -2.83%.

With `Cc1ccc(S(=O)(=O)Nc2cccc(C(=O)NCC(c3ccco3)N(C)C)c2)cc1F` (centres unmarked), the “hERG current change (%, negative = inhibition) at 1uM” value stood at 3.32%.

`COc1cc(C2NC(=O)NC(C)=C2C(=O)OC(C)(C)C)ccc1OCC(N)=O` (centres unmarked): the “hERG current change (%, negative = inhibition) at 1uM” value was 8.07%.

Take `O=C(CNC(=O)Cc1ccccc1)N=Nc1c(O)[nH]c2ccccc12`: the “hERG current change (%, negative = inhibition) at 1uM” value is recorded as 13.5%.

With `CCC(C)OC(=O)C1=C(C)NC2=C(C(=O)C(C(=O)OC)C(C)C2)C1c1ccc(N(C)C)cc1` (centres unmarked), the “hERG current change (%, negative = inhibition) at 1uM” value was determined as 7.82%.

With `O=C(Nc1cccnc1)c1noc2c1CCCC2`, the “hERG current change (%, negative = inhibition) at 1uM” value is recorded as -6.33%.

As for `COc1ccccc1N1CC(C(=O)Nc2nnc(SCc3ccccn3)s2)CC1=O` (centres unmarked), the “hERG current change (%, negative = inhibition) at 1uM” value was 2.91%.

With `O=C(NCc1ccncc1)C(=O)NCC1OCCN1S(=O)(=O)c1ccc(Br)cc1` (centres unmarked), the “hERG current change (%, negative = inhibition) at 1uM” value was determined as 10.5%.

Regarding `CCOc1ccccc1N1C(=O)c2ccc(C(=O)O)cc2C1=O`, the “hERG current change (%, negative = inhibition) at 1uM” value turned out to be 7.81%.

`Cc1cc(-c2nn(-c3ccccc3F)cc2CN2CCC(C(N)=O)CC2)c(C)s1`: the “hERG current change (%, negative = inhibition) at 1uM” value stood at 21.1%.

For `CC(C)n1cc(C(=O)c2cc(Br)ccc2O)cc(C#N)c1=O`, the “hERG current change (%, negative = inhibition) at 1uM” value is reported as 10.4%.

On to `O=S(=O)(c1ccc(Br)c2ccccc12)N1CCCC1`, for which the “hERG current change (%, negative = inhibition) at 1uM” value came out at 20.3%.

For `CCn1nc(C(=O)OCC(=O)NCC(C)C)c2ccccc2c1=O`, the “hERG current change (%, negative = inhibition) at 1uM” value turned out to be 8.86%.

As for `NNC(=O)c1cccc(S(=O)(=O)Nc2cc(Cl)ccc2Cl)c1`, the “hERG current change (%, negative = inhibition) at 1uM” value amounted to 10.2%.

Consider `CCc1noc(C)c1C(=O)N(CC)CC(=O)Nc1cc(Cl)ccc1C`, for which the “hERG current change (%, negative = inhibition) at 1uM” value amounted to 6.21%.

`COc1cc(C(=O)NCC2CCCCC2)ccc1OCc1c(C)noc1C`: the “hERG current change (%, negative = inhibition) at 1uM” value came out at 6.4%.

Take `COCCN1C=C2C(=O)C(C)(OC(=O)CCC(=O)OC)C(=O)C=C2C=C1C1CC1` (centres unmarked): the “hERG current change (%, negative = inhibition) at 1uM” value was 11.8%.

For `Cl.Cn1cc(C(=O)NCN2CCCCC2)c2ccccc21`, the “hERG current change (%, negative = inhibition) at 1uM” value is 14%.

On to `CCOP(=O)(OCC)C(NC(=O)Nc1ccc(Cl)c(Cl)c1)c1ccccc1` (centres unmarked), for which the “hERG current change (%, negative = inhibition) at 1uM” value is on record as 7.76%.
